# Assay results published in the supplement of paper PMC11417369.
# ± gives the standard deviation of the averaged measurements. The list shows a part of the results.
# Tested on: PfAP2-EXP AP2 domain (GST-tagged)
# Assay: gcPBM binding intensity (ln(normalized median fluorescence intensity)); higher = stronger DNA binding
# Method in brief: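 An Agilent 4 × 180k array of primer-extended double-stranded 36-bp intergenic genomic probes, with negative controls, was incubated for 1 h with GST-tagged P. falciparum DNA-binding domains expressed in E. coli. Alexa488 anti-GST antibody detected bound protein, scanned at 488 nm. Binding intensity is the highest Masliner-normalised natural-log median intensity across replicate spots of either probe orientation.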
row,Sequence,gcPBM binding intensity (ln)
1,TGTACGAGTCGTAGAGTGCAGTCTGGAGAAACGTAC [GTGCAC_site9682],9.2 ± 0.36
2,TATATACGTAATAGTAGTACTTTAAAATGCGGAAAT [XGTACX_site4597],9.14 ± 0.21
3,GATAGACACGTGCACACATGCAATACTTTATTCAGT [TGCATGCA_site778],9.37 ± 0.11
4,AAAAAAGATATATAAACACACATATTTATATACACA [CACACA_site6866],8.28 ± 0.32
5,ATTTATATTATGAGGAGTACAATACTTATAGATGTA [XGTACX_site7510],8.46 ± 0.32
6,ATAAATAACTTTTAAATACACACGTAAAATATATTG [CACACA_site3302],8.64 ± 0.33
7,ATACCATATAATTATGTGAGAAAATATAATATTCAT [CACACA_negctrl_site310],8.48 ± 0.34
8,ATTTTCTTAAATAAATGTACATGGCATTAAAAGTAA [XGTACX_site5119],8.73 ± 0.33
9,TATTTGTATATTCATTCCTGTATTCCCTTTTTTGTA [CACACA_negctrl_site1236],8.88 ± 0.61
10,ATATATATATATGTATGTACATAATATTTTTTTTAT [XGTACX_site5551],10 ± 0.24
11,TGTACGTTTTTTAACACACACACAAAAAAAAAAAAA [CACACA_site6006],8.39 ± 0.51
12,AAAAAAAAAAAAAATACACACAAATAATAAAAATAA [CACACA_site1431],8.45 ± 0.56
13,ACTGTACTATAAAATACACACATATAAATATAAATA [CACACA_site3009],8.59 ± 0.22
14,TATTTTAGAGAAAAAAATAAATTACAAAATGTTAGG [CACACA_negctrl_site1645],8.35 ± 0.35
15,TTAAATATCCATATTTCACACATTTCGATATATATA [CACACA_site4208],8.38 ± 0.45
16,TATAATATTATATAATGTACGCATTTATTATTTAAA [XGTACX_site8326],8.26 ± 0.26
17,GAATGTAAATATTAAAGTACACAGAATATATCTTCA [XGTACX_site8149],8.49 ± 0.4
18,CCTAAATAAATGGACACACACATATTTATATTTATA [CACACA_site6789],8.46 ± 0.45
19,ATAATGTCATAATTATATCCTTTGGCATAAAATAAA [XGTACX_negctrl_site574],8.3 ± 0.45

row,Sequence,gcPBM binding intensity (ln)
1,AAATAAAATCATGAATGTACACAAAAATTATTGCAA [XGTACX_site5691],8.86 ± 0.42
2,TTTGAAGGAAGGGGGGGAGGGGCCATAACAAAGGAA [GTGCAC_negctrl_site408],10.13 ± 0.035
3,ATATATTTATATATTGCACACAAAAAAAAAAAAAAA [CACACA_site8468],8.61 ± 0.24
4,AACATTATAAGACACACACACACATATATAAATATA [CACACA_site6622],8.65 ± 0.58
5,AAATAAGAACATAGAATGCACTTTTTTTTTTTTTCC,8.14 ± 0.12
6,AAATATAATAAAATGACACACGCATATATATATATA [CACACA_site8900],10.2 ± 0.41
7,ATATATCCAAATAGATTACATATATATATATAGATA [TGCATGCA_negctrl_site277],8.32 ± 0.21
8,AATATATAAGTCTACTGTACCCAAAATAAAATTTAT [XGTACX_site8727],8.45 ± 0.34
9,GTATATATACATAAATGTACATATATATAAAAAATG [XGTACX_site3271],8.55 ± 0.33
10,TATTGCCCTTGACACACACACATATAAATAAATATA [CACACA_site7220],8.63 ± 0.37
11,AAATATGTATATATATATATATATATATATATATAT [GTGCAC_negctrl_site335],10 ± 0.4
12,TTAAACCGTGGGAGCACACACACACCCAGACACATA [CACACA_site4337],8.44 ± 0.48
13,TAAGGTTAAATAATATGTACATATTATTATATATAT [XGTACX_site6953],8.74 ± 0.085
14,TTATGGGACTCAAATACATGCAAAAATATTTTTAAG [TGCATGCA_site559],9.02 ± 0.31
15,CACGTGTAAATAGTTTTACAATATCTCGATATGTAT [CACACA_negctrl_site785],8.45 ± 0.36
16,TTATATGAAAATTATTGTACAATCTATAAAAAAAAT [XGTACX_site4194],8.73 ± 0.46
17,TTACTATGTAAACACACATGCAATATATGTTAAGCC [TGCATGCA_site253],8.79 ± 0.2
18,GGATATATGAAACATATTGAAAAACCGTTTAGTACA [CACACA_negctrl_site132],8.63 ± 0.31
19,TAATTTTTGTAAACAGTCATGGATTCAAAAAAAAAA [CACACA_negctrl_site593],8.26 ± 0.44

row,Sequence,gcPBM binding intensity (ln)
1,GTAATTATATACATACGTACATACACATATGTATAT [XGTACX_site4149],8.56 ± 0.33
2,AAGGAAATAAGAAAAAGTACACATAAGTATATAACA [XGTACX_site1173],8.94 ± 0.42
3,TAATAATCAAACTATACACACATAAATAAATATATA [CACACA_site156],8.57 ± 0.26
4,AAAATATATCAAAATAGTACATAATTTTTTAAGAAT [XGTACX_site3515],8.45 ± 0.37
5,AAAAATGTGCACACGCGTACACACAAAAAAAGAAAA [XGTACX_site4097],9.05 ± 0.28
6,GTAGTAATAAATCTAGTGCATTATATATAACAAAAA [GTGCAC_site9803],8.81 ± 0.3
7,TTTTTTTCTTTTTTTTGTACTCATACATACTATCAT [XGTACX_site607],8.64 ± 0.46
8,AATAAAGCAATAAATACACACATATATATATATATA [CACACA_site2934],10.1 ± 0.45
9,TATATAAAAAATAGGTGGTCAACTTAAATATTTTAT [XGTACX_site4495],8.4 ± 0.34
10,AGTTATGCATCTTAGGTGCTATGCCCAATTTATTTT [GTGCAC_site9977],8.6 ± 0.33
11,AACTTACTCTTTACAAGTACGTAAAAGAAATAGAAA [XGTACX_site1782],8.51 ± 0.41
12,TTGCCTTAAAAAGGAACACACATGCTTTTTTTAGTT [CACACA_site938],8.37 ± 0.45
13,AAAAAAAAAAAAAATGCACACATATATTTCCATATA [CACACA_site8416],8.56 ± 0.2
14,ACAAAGTAAAATAATGCATGTAGGTATACATAATTA [TGCATGCA_site607],8.59 ± 0.4
15,GTGCTAAAAGTATATGCACACACATATATATGCACA [CACACA_site8472],8.88 ± 0.26
16,AATATTTTATATAAATGTACATTTATGAATAATATA [XGTACX_site8477],8.46 ± 0.42
17,ACATATTTCCAATAATGTACATACAAAATAAGAATG [XGTACX_site2659],8.71 ± 0.38
18,TGTTCATTTATTTACTTACACACTTTATATATGTGG [CACACA_site1410],8.79 ± 0.53
